{"source": "patent US8247220B2", "about": "“Optical indicator for detecting bacterial pathogens” (Kimberly-Clark Worldwide, Inc., priority 2008, dated 2012)", "tested_on": "Adenovirus Type 2 (ATCC # VR-846), Adenovirus Type 5 (ATCC # VR-5)", "assay": "Reichardt's dye-treated samples with upper respiratory viruses", "conditions": "compared with Salmonella bacterial control at a similar concentration", "data": [{"smiles": "[O-]c1c(-c2ccccc2)cc(-[n+]2c(-c3ccccc3)cc(-c3ccccc3)cc2-c2ccccc2)cc1-c1ccccc1", "note": "[Reichardt's dye, 4-(2,4,6-triphenylpyridinium-1-yl)-2,6-diphenylphenolate]", "values": [{"measurement": "de-colorization of the dye", "result": "almost no ability to de-colorize the dye"}]}]}
